Ends that are not written are not given here. CPQ2 = quencher
What was measured:
Granzyme B = Granzyme B (Homo sapiens, UniProt P10144); assay: Ex vivo probe cleavage in COVID+ vs COVID- swab samples; conditions: for number of active samples: adjusted RFU across timepoints
[1] = tested on: caspase activity in hepatitis; assay: Ex vivo probe cleavage in plasma of Jo2 fulminant hepatitis mice; type: biochemical; conditions: mouse plasma 3 hours after Jo2 injection vs healthy
Protocol: Fulminant hepatitis is induced after injection intraperitoneal of monoclonal antibody anti-CD95 (Jo2, BD biosciences, 4 ug/animal), and mouse plasma samples were collected 3 hours after Jo2 injection.

[2] = tested on: cathepsin and/or MMP protease activities; assay: Ex vivo probe cleavage in plasma of healthy, NASH regression and NASH progression mice; type: biochemical; conditions: K2EDTA plasma collected at 20 weeks
From the text: Plasma samples were collected from all animals at 20 weeks.
The probes showing the most differentiation in NASH were linked to cathepsin and/or MMP protease activities.

Sequence of Granzyme B (P10144 21-247): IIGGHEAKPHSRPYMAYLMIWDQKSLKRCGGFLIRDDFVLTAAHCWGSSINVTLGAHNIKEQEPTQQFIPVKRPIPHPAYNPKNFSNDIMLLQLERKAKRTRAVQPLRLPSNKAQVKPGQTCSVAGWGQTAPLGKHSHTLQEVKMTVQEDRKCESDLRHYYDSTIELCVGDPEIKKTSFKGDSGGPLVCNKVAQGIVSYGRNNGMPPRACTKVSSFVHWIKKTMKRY

Substance: Probe #647: Caspase centric probe; signal measures the activity of protease Granzyme B (GAIEPDSGGK(CPQ2); not fully specified (N-terminus, C-terminus); also: 5FAM (place not given here), PEG2 (place not given here), C-terminal amide)
- difference between COVID+ and COVID- samples (Granzyme B; COVID+ (n=18) vs COVID- (n-19), p=0.029): significant differences
- number of active samples (Granzyme B; COVID+ swab samples): 7 samples
- number of active samples (Granzyme B; COVID- swab samples): 1 sample
- protease whose activity the probe signal measures (Granzyme B; inhibition experiments, healthy vs COVID samples): measures the activity of protease Granzyme B
- differentiation between COVID+ and COVID- samples (Granzyme B; swabs in saline): key differentiator
- contrast in Jo2 hepatitis model [1]: show contrast that is specific and sensitive to the Jo2 model
- differentiation among healthy, regression and NASH samples [2]: can differentiate
